# Hit rate of the full screen: of about 39,000 compounds, about 220 (0.56%) showed activity. Some of the results follow.
# Test system: Escherichia coli K-12 BW25113
# Assay: relative growth (OD600 normalised to plate interquartile mean) (fraction); higher = less growth inhibition, active = 0.2 or less
# Conditions: 50 µM; LB; incubation time: overnight (16-24 h)
# 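Also: static incubation at 37 °C against the wild-type strain, values averaged over two biological replicates.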
row,Structure (SMILES),relative growth
1,C[C@@H]1CN([C@@H](C)CO)C(=O)c2cc(NC(=O)Nc3cccc4ccccc34)ccc2O[C@@H]1CN(C)C(=O)Nc1cccc2ccccc12,inactive: 1.01
2,C=CCOC(=O)[C@@H]1[C@H]2C(=O)O[C@H](c3ccccc3)[C@H](c3ccccc3)N2[C@H](c2ccc(OCCOC(=O)[C@H]3C[C@H]4C(=O)N[C@@H](CCCCN(C)C)C(=O)N4[C@H]3c3cccc(OCCO)c3)cc2)[C@@]12C(=O)Nc1ccc(I)cc12,inactive: 1.07
3,O=C(N[C@@H](c1ccc(-c2ccccc2)cc1)c1cnccn1)C1CCN(Cc2ccc(Cl)c(Cl)c2)CC1,inactive: 1.04
4,C[C@H](CO)N1C[C@H](C)[C@H](CN(C)C(=O)Nc2ccc(F)cc2)OCCCC[C@H](C)Oc2ccc(NC(=O)C3CC3)cc2C1=O,inactive: 0.985
5,COc1ccc(S(=O)(=O)Nc2ccc3c(c2)CC(=O)N([C@@H](C)CO)C[C@@H](C)[C@H](CN(C)Cc2ccc(-c4ccccc4)cc2)O3)cc1,inactive: 0.986
6,CCS(=O)(=O)Nc1ccc2c(c1)C(=O)N(C)C[C@H](OC)[C@@H](C)CN(C(=O)c1ccc3c(c1)OCO3)[C@H](C)CO2,inactive: 1.03
7,Cc1ccc(S(=O)(=O)Nc2ccc3c(c2)CC(=O)N([C@@H](C)CO)C[C@@H](C)[C@@H](CN(C)C(=O)Nc2ccc(C(F)(F)F)cc2)O3)cc1,inactive: 0.977
8,C[C@H]1CN([C@@H](C)CO)C(=O)Cc2cc(NC(=O)Nc3ccccc3)ccc2O[C@@H]1CN(C)Cc1ccc(Cl)c(Cl)c1,inactive: 1.03
9,C[C@@H]1CN([C@@H](C)CO)C(=O)CCCn2cc(nn2)CO[C@H]1CN(C)S(=O)(=O)c1ccc(Cl)cc1,inactive: 1
10,C[C@@H]1CN([C@H](C)CO)C(=O)c2cccc(NC(=O)c3ccncc3)c2O[C@@H]1CN(C)C(=O)Nc1ccc2c(c1)OCO2,inactive: 0.985
11,CO[C@H]1CN(C)C(=O)c2ccc(NC(=O)c3ccc(F)cc3)cc2OC[C@H](C)N(C(=O)CN(C)C)C[C@H]1C,inactive: 0.984
12,C[C@@H]1CN([C@H](C)CO)C(=O)c2cc(NS(=O)(=O)c3ccc(Cl)cc3)ccc2O[C@@H]1CN(C)C(=O)Nc1ccc(C(F)(F)F)cc1,inactive: 0.998
13,C[C@H]1CN([C@@H](C)CO)C(=O)Cc2cc(NC(=O)Cc3ccccc3)ccc2O[C@@H]1CN(C)S(=O)(=O)c1cccs1,inactive: 0.994
14,C[C@@H]1CCCCO[C@@H](CN(C)CC2CCCCC2)[C@@H](C)CN([C@H](C)CO)C(=O)c2cc(NC(=O)CCCCCC(=O)Nc3ccccc3N)ccc2O1,inactive: 1.01
15,COc1ccc(CNC(=O)N(C)C[C@H]2OCc3ccccc3-c3c(n(C)c4ccccc34)C(=O)N([C@@H](C)CO)C[C@H]2C)cc1,inactive: 1.02
16,COc1ccc(CN(C)C[C@H]2Oc3c(NS(C)(=O)=O)cccc3C(=O)N([C@@H](C)CO)C[C@@H]2C)cc1,inactive: 0.999
17,Cc1ccc(S(=O)(=O)Nc2ccc3c(c2)C(=O)N([C@@H](C)CO)C[C@@H](C)[C@H](CN(C)S(=O)(=O)c2ccc(F)cc2)OCCCC[C@@H](C)O3)cc1,inactive: 1.04
18,Cc1ccc(S[C@]2(C(=O)NC(C)C)CC(=O)N(Cc3ccccc3Cl)[C@@H]2c2ccc(CO)cc2)cc1,inactive: 1.04
19,Cc1noc(C)c1NC(=O)N(C)C[C@@H]1OCCCC[C@H](C)Oc2ccc(NC(=O)C3CCCCC3)cc2C(=O)N([C@H](C)CO)C[C@H]1C,inactive: 0.983

row,Structure (SMILES),relative growth
1,C=CC(=O)N[C@H]1CCCN(CC)C1,inactive: 0.975
2,Cc1noc(C)c1S(=O)(=O)Nc1ccc2c(c1)C(=O)N([C@@H](C)CO)C[C@H](C)[C@@H](CN(C)S(=O)(=O)c1cccs1)O2,inactive: 0.989
3,C[C@@H]1CN([C@@H](C)CO)C(=O)c2cc(C#CCN(C)C)cnc2O[C@H]1CN(C)Cc1cccc(C(=O)O)c1,inactive: 1.01
4,C[C@@H]1CN([C@@H](C)CO)C(=O)c2cccc(NC(=O)c3ccncc3)c2O[C@@H]1CN(C)S(=O)(=O)c1ccccc1,inactive: 0.975
5,COCC(=O)N1C[C@@H](C)[C@H](OC)CN(C)C(=O)c2cc(NC(=O)c3ccc(F)cc3)ccc2OC[C@H]1C,inactive: 1.01
6,C[C@H]1CN([C@@H](C)CO)C(=O)Cc2cc(NC(=O)CCN3CCOCC3)ccc2O[C@@H]1CN(C)S(=O)(=O)c1ccccc1,inactive: 1.02
7,COc1cccc(C#Cc2cnc3c(c2)C(=O)N([C@H](C)CO)C[C@@H](C)[C@H](CN(C)C(=O)C2CCC2)O3)c1,inactive: 1.01
8,C[C@@H]1CN([C@@H](C)CO)S(=O)(=O)c2ccc(C#Cc3ccccc3F)cc2O[C@@H]1CN(C)C(=O)c1ccc2c(c1)OCO2,inactive: 0.959
9,COc1ccccc1C#Cc1ccc2c(c1)O[C@@H](CN(C)Cc1ccncc1)[C@H](C)CN([C@H](C)CO)S2(=O)=O,inactive: 1.04
10,O=C(O)c1c(O)c2c([nH]c1=O)CCCC2,active: 0.104
11,Cl.NC(CO)C(=O)NNCc1ccc(O)c(O)c1O (configuration not stated),inactive: 0.941
12,COc1ccc([C@H]([C@H](Cc2ccccc2)OC(C)=O)N(C/C=C/[C@@H](OC(C)=O)c2ccccc2)[C@@H](Cc2ccccc2)C(OC)OC)cc1,inactive: 1.04
13,CO[C@H]1CN(C)C(=O)c2ccc(NC(=O)C3CC3)cc2OC[C@H](C)N(C(=O)C2CCOCC2)C[C@@H]1C,inactive: 0.997
14,C[C@@H]1CN([C@@H](C)CO)C(=O)Cc2cc(NC(=O)CCN3CCOCC3)ccc2O[C@H]1CN(C)S(C)(=O)=O,inactive: 1.02
15,Cc1nnn2c1COC[C@H](CNS(C)(=O)=O)C2,inactive: 1
16,C[C@@H]1CN([C@H](C)CO)C(=O)c2cc(NC(=O)Nc3ccc(F)cc3)ccc2O[C@@H]1CN(C)Cc1ccc(C(F)(F)F)cc1,inactive: 0.974
17,O=c1cc(CN2CCCC2)nc2n1CCCNC2,inactive: 0.968
18,C[C@H]1CC/C=C\[C@H]2O[C@@]34C=CCN(c5ccc(Cl)cc5)C(=O)[C@H]3N([C@@H](C)CO)C(=O)[C@]4(C)[C@@H]2C(=O)O1,inactive: 0.999

# — the supplement of paper PMC9446081
